Measured values from the supplement of paper PMC7125110.
± gives the standard error. This sample is rich in variants without activity.

B1: glmS ribozyme (parent)
chain: AUAAAAGCGCCAGAACUACAGAAAUGUAGUUGACGAGGAGGAGGUUUAUCGAAUUUUCGGCGGAUGCCUCCAAA

Tests used:
Settings in all cases: with glucosamine-6-phosphate
[1] = variants of: B1; assay: self-cleavage kobs at 40 uM GlcN6P; higher = faster cleavage; RNA array
Outline: (§1)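 Tiles bearing barcoded ribozyme variants, transcribed in situ by E. coli RNA polymerase on sequenced MiSeq chips, were imaged over ~14 h at 37 °C using a hybridised Cy3 probe. Glucosamine-6-phosphate was supplied at 40 μM to 10 mM in HEPES/KCl/Mg(OAc)2 buffer. kobs came from one- or two-exponential decay fits to normalised per-tile medians, and weighted Michaelis–Menten fits then provided kcat and KM.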

[2] = variants of: B1; assay: self-cleavage kobs at 10000 uM GlcN6P; higher = faster cleavage; RNA array
Outline: as §1

[3] = variants of: B1; assay: self-cleavage kobs at 640 uM GlcN6P; higher = faster cleavage; RNA array
Outline: as §1

[4] = variants of: B1; assay: self-cleavage kobs at 160 uM GlcN6P; higher = faster cleavage; RNA array
Outline: as §1

[5] = variants of: B1; assay: self-cleavage kobs at 2500 uM GlcN6P; higher = faster cleavage; RNA array
Outline: as §1

Row | Variant | self-cleavage kobs at 40 uM GlcN6P [1] [s⁻¹] | further results
1 | AUAAAAGCGCCAGAACUACAGAAAUGUAGAUGACGAGGAGGAGGUUUACCGAAUAUUCGGCGGAUGCCUCCAAA [U30A U49C U55A] | < 1e-05 | –
2 | AUAAAAGCGCCAGAACUACAGAAAUGUAGAUGACGAGGAGGAGGUUUAUCGAAUAUUCGGCGGAUGCCUCCAAA [U30A U55A] | 0.000212 ± 3.2e-05 | –
3 | AUAAAAGCGCCAGAACUACAGAAAUGUAGCUGGCGAGGAGGAGGUUUAUCGAAUUUUCGGCGGAUUCCUCGAAA [U30C A33G G66U C71G] | < 1e-05 | self-cleavage kobs at 10000 uM GlcN6P [2]: < 1e-05 s⁻¹
4 | AUAAAAGCGCCAGAACUACAGAAAUGUAGCUGGCGAGGAGGAGGUGUAUCGAAUUUUCGGCGGAUGCCUCCAAA [U30C A33G U46G] | < 1e-05 | –
5 | AUAAAAGCGCCAGAACUACAGAAAUGUAGCUGACGAGGAGGUGGUUUAUCGAAUUUUCGGCGGAUGCCUACAAA [U30C A42U C70A] | < 1e-05 | –
6 | AUAAAAGCGCCAGAACUACAGAAAUGUAGCUGACGAGGAGGAGGUUUAUAGAGUUUUCGGCGGAUGCCCGCAAA [U30C C50A A53G U69C C70G] | 5.5e-05 ± 1.9e-05 | –
7 | AUAAAAGCGCCAGAACUACAGAAAUGUAGCUGACGAGGAGGAGGUUUAUCGAAUUUUCGGCGGAUGGCUCCAAA [U30C C67G] | < 1e-05 | –
8 | AUAAAAGCGCCAGAACUACAGAAAUGUAGCUGACGAAGAGGAGGUUUAUCGAAUUUUCGGCGGAUGCCUCCAAA [U30C G37A] | < 1e-05 | –
9 | AUAAAAGCGCCAGAACUACAGAAAUGUAGCUGACGAGGAAGAGGUUUAUCGAAUUUUCGGCGGAUGCCUCCAAA [U30C G40A] | < 1e-05 | –
10 | AUAAAAGCGCCAGAACUACAGAAAUGUAGCUGACGAGGAGCAGGUUUAUCGAAUUUUCGGCGGAUGCCUCCAAA [U30C G41C] | < 1e-05 | self-cleavage kobs at 640 uM GlcN6P [3]: < 1e-05 s⁻¹; self-cleavage kobs at 160 uM GlcN6P [4]: < 1e-05 s⁻¹
11 | AUAAAAGCGCCAGAACUACAGAAAUGUAGCUGACGAGGAGGAGAUUUAUCGAAUUUUCGGCGGUUGCCUCCAAA [U30C G44A A64U] | < 1e-05 | self-cleavage kobs at 640 uM GlcN6P [3]: < 1e-05 s⁻¹; self-cleavage kobs at 160 uM GlcN6P [4]: < 1e-05 s⁻¹; self-cleavage kobs at 2500 uM GlcN6P [5]: < 1e-05 s⁻¹; self-cleavage kobs at 10000 uM GlcN6P [2]: < 1e-05 s⁻¹
12 | AUAAAAGCGCCAGAACUACAGAAAUGUAGCUGACGAGGAGGAGGUUUAUCGAAUUUUCGACGGAUGCCUCCAAA [U30C G60A] | < 1e-05 | self-cleavage kobs at 160 uM GlcN6P [4]: < 1e-05 s⁻¹; self-cleavage kobs at 10000 uM GlcN6P [2]: < 1e-05 s⁻¹
13 | AUAAAAGCGCCAGAACUACAGAAAUGUAGCUGACGAGGAGGAGGUUUAUCGAAUUUUCGGCGGAUAGCUCCAAA [U30C G66A C67G] | < 1e-05 | –
14 | AUAAAAGCGCCAGAACUACAGAAAUGUAGCUGACGAGGAGGAGGUUUAUCGAAUUUUCGGCGGAUCUCUCCAAA [U30C G66C C67U] | < 1e-05 | –
15 | AUAAAAGCGCCAGAACUACAGAAAUGUAGCUGACGAGGAGGAGGAUCAUUGAAUUUUCGUCGGAUGCUUCCAAA [U30C U45A U47C C50U G60U C68U] | < 1e-05 | –
16 | AUAAAAGCGCCAGAACUACAGAAAUGUAGGUGACGAGGAGGAGGUUUAUCGAAUUUUCGGCGGAUGACUCCAAA [U30G C67A] | 6.13e-05 ± 1.3e-05 | –
17 | AUAAAAGCGCCAGAACUACAGAAAUGUAGGUGACGAUGAGGAGGCUUAUCGAAUUUUCGGCGGAUGCCUCUAAA [U30G G37U U45C C71U] | < 1e-05 | self-cleavage kobs at 10000 uM GlcN6P [2]: < 1e-05 s⁻¹
18 | AUAAAAGCGCCAGAACUACAGAAAUGUAGGUGACGAGGAGGAGGUUUAUCGAAUUUUCCGCGGAUGCCUCCAAA [U30G G59C] | < 1e-05 | self-cleavage kobs at 640 uM GlcN6P [3]: < 1e-05 s⁻¹; self-cleavage kobs at 10000 uM GlcN6P [2]: < 1e-05 s⁻¹
19 | AUAAAAGCGCCAGAACUACAGAAAUGUAGGUGACGAGGAGGAGGUUUAUCGAAUUUUCGACGGAUGUCUCCAAA [U30G G60A C67U] | < 1e-05 | –
20 | AUAAAAGCGCCAGAACUACAGAAAUGUAGGGGACGAGGAGGAGGUUUAGCGAAUUUUCGGCGGAUGCCGCCAAA [U30G U31G U49G U69G] | < 1e-05 | self-cleavage kobs at 640 uM GlcN6P [3]: 7.71e-05 ± 2.2e-05 s⁻¹; self-cleavage kobs at 2500 uM GlcN6P [5]: 6.45e-05 ± 2.7e-05 s⁻¹
21 | AUAAAAGCGCCAGAACUACAGAAAUGUAGGUGACGAGGAGGAGGUUUAUCGAAGCUUCGGCGGCUGCCUCCAAA [U30G U54G U55C A64C] | < 1e-05 | self-cleavage kobs at 640 uM GlcN6P [3]: < 1e-05 s⁻¹
